Each block holds one binder with its values, some of them ahead of it.
Assays:
human CLDN18.2 = human CLDN18.2 (human); experiment: cell-based or functional assay
murine CLDN18.1 = target: T1, murine CLDN18.1 (murine, UniProt P56857 1-264); experiment: flow cytometry on murine CLDN18.1-HEK293 cells
T1 construct: Overexpressed on HEK293 cells; also called murine CLDN18.1-HEK293

human CLDN18.1 = target: T2, human CLDN18.1 (human, UniProt P56856 1-261); experiment: flow cytometry, binding intensity on human CLDN18.1-HEK293 cells at different concentrations
T2 construct: Overexpressed on HEK293 cells; also called human CLDN18.1-HEK293

Chain of murine CLDN18.1 (P56857 whole entry): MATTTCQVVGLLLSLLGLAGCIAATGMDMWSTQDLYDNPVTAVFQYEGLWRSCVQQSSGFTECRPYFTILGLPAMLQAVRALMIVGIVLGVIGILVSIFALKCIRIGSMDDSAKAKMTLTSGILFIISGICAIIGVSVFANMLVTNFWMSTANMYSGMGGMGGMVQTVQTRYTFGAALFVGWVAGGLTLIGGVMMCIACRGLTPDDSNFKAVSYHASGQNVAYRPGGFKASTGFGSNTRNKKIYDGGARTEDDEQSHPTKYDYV
Chain of human CLDN18.1 (P56856 whole entry): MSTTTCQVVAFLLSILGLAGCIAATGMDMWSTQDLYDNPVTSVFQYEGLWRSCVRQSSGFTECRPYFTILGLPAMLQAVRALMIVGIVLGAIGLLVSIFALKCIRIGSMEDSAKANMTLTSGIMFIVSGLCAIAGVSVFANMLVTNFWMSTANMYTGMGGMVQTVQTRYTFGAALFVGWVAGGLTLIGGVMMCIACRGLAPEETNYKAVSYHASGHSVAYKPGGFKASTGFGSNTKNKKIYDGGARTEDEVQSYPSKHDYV

binding result (murine CLDN18.1): no binding (tested: 10 µg/mL)
B1: Fc-fused chimeric antibody NA7-S (Fc fusion)
chain: EVQVQESGGGLVQPGGSLRLSCAASGSFFRIVAMGWYRQAPGSQRELVATITRGGSTYYADSMKGRSTISRDNAKNTVYLQMNSLKPEDTAVYYCNVRVEVPFMQPNDYWGHGTQVTVSS[letters of human IgG1 Fc left out]
notes: Alpaca VHH fused to human IgG1 Fc, expressed in ExpiCHO; also called candidate antibody NA7-S; NA7-S antibody
EC50 of ADCC cell killing effect (LDH release, human PBMC) on human CLDN18.2-HEK293T cells (human CLDN18.2): 0.11 nM
EC50 of CDC cell killing effect (MTS) on human CLDN18.2-HEK293T cells (human CLDN18.2): 0.507 nM
EC50 of CDC cell killing effect (MTS) on human CLDN18.2-KATOIII tumor cells (human CLDN18.2): 6.85 nM
IC50 of Fab-ZAP cell killing (endocytosis, MTS) on CLDN18.2-HEK293T cells (human CLDN18.2): 0.0487 nM

binding result (murine CLDN18.1): no binding (tested: 10 µg/mL)
B2: Fc-fused chimeric antibody NA8-S (Fc fusion)
chain: EVQVQESGGGLVQAGGSLRLSCAASGRTFSNYAVGWFRQAPGKEREFVAAITWSGGSTNYADSVKGRFTISRDNAKNTAWLQMNSLKPEDTAVYYCAGGFFATSYSGNYGYWGQGTQVTVSS[letters of human IgG1 Fc left out]
notes: Alpaca VHH fused to human IgG1 Fc, expressed in ExpiCHO; also called candidate antibody NA8-S; NA8-S antibody

binding result (murine CLDN18.1): no binding (tested: 10 µg/mL)
binding result (human CLDN18.1): no binding (tested: 100 µg/mL)
B3: Fc-fused chimeric antibody NA4-S (Fc fusion)
chain: EVQVVESGGGLVQPGGSLRLSCAASGSIFSINVMGWYRQAPGKQRELVAGISTGGTTRYADSAKGRFTISRDNAKNTVYLQMNSLKPEDTAVYYCNADLATATSWPVRYLEVWGQGTLVTVSA[letters of human IgG1 Fc left out]
notes: It gives no copy number for this molecule; also called candidate antibody NA4-S; NA4-S antibody
EC50 of CDC cell killing effect (MTS) on human CLDN18.2-HEK293T cells (human CLDN18.2): 0.732 nM
